The whole screen tested about 44,000 compounds, of which about 340 (0.77%) were called active. About 5% were inconclusive and are not listed. The call rests on the fitted dose curve; in most records, active means well fitted inhibition curve with a large enough effect; inconclusive means small, poorly fitted or top-dose-only effect; inactive means flat fitted curve, though single readings scatter. The list shows a part of the results.
assay: Acumen qHTS Assay for Inhibitors of the mTORC1 Signaling Pathway in MEF (Tsc2-/-, p53-/-) Cells: Sytravon; conditions: phospho-rpS6 immunofluorescence/PI, 24 h; series mostly up to 38.3 µM; activity change, negative = inhibition: at the top concentration;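 further: plate controls were DMSO for no effect and rapamycin for full effect; nearly all actives have a fitted effect of over 50% in size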
Outline: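 Immunofluorescence of rpS6 phosphorylation in Tsc2-/-, p53-/- MEFs after 24 h compound exposure, normalized to propidium iodide signal. Activity is expressed as % positive cells, thresholded with 7.5 nM rapamycin.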

SMILES	activity change, negative = inhibition
Nc1c(-c2nc(-c3ccc(Cl)cc3)cs2)c2ccccn2c1C(=O)c1ccc2c(c1)OCO2	inactive: -3.36%
Cc1c(C)n(Cc2ccc(Cl)cc2)c2ccc(C(=O)NCCc3ccc(S(N)(=O)=O)cc3)cc12	inactive: -2.68%
COCCCNC(=O)c1cc2c(=O)n3cccc(C)c3nc2s1	inactive: -12.3%
O=S(=O)(Nc1cccc(-c2ccc(N3CCCCC3)nn2)c1)c1cccc(F)c1	inactive: -3.18%
CCCCc1nc2ccccc2n2c(-c3ccc(C)cc3)c3c(=O)n(C)c(=O)n(C)c3c12	inactive: 0.306%
COc1ccc(C2C(=O)N(C3CCC(C)CC3)CC(=O)N2CCc2ccccc2)cc1OC (stereo not drawn)	inactive: 8.7%
CSc1cccc(NC(=O)CN(c2ccccc2)S(=O)(=O)N(C)C)c1	inactive: -2.47%
CC1CCN(S(=O)(=O)c2ccc3c(c2)N(CC(=O)NC(C)c2ccccc2)C(=O)CO3)CC1 (stereo not drawn)	inactive: -7.64%
Cc1cc(N2CCCCC2)nc2ccc(NC(=O)c3cccc(F)c3)cc12	inactive: -15.6%
CCCc1nnc(NC(=O)Cc2coc3cc(C)cc(C)c23)s1	inactive: 1.13%
Cc1ccc(C(=O)N2CCc3cc(CNC(=O)COc4ccccc4)ccc32)cc1	inactive: -17.2%
CCOc1ccc(Nc2nc3ccccc3n3c(CC)nnc23)cc1	inactive: -16.6%
CCCN1CCN(CCCNC(=O)c2cnn(-c3ccc(F)cc3)c2-n2cccc2)CC1	inactive: 0.438%
O=S(=O)(c1cccc(C(F)(F)F)c1)n1c(/C=C/c2ccccc2)nc2ccccc21	inactive: -0.93%
O=C(Cn1c(=O)n(-c2ccccc2)c(=O)c2sc3ccccc3c21)N1CCCC1	inactive: 7.77%
CC(C)c1ccc(NC(=O)CN2C(=O)COc3ccc(S(=O)(=O)Nc4ccccc4)cc32)cc1	inactive: -8.66%
O=[N+]([O-])c1cc(-c2nc(-c3cccnc3)no2)ccc1NCc1ccccc1	inactive: 1.35%
O=C(Nc1ccc(Br)cc1)C1CCN(S(=O)(=O)c2cccc3nsnc23)CC1	inactive: 0.553%
CC(C)OCCCNC(=O)CCCn1c(SCC(=O)c2ccc(F)cc2)nc2c(sc3ccccc32)c1=O	inactive: -4.34%
Cc1ccc2oc(=O)c3cnn(CC(=O)Nc4cccc(C(F)(F)F)c4)c3c2c1	inactive: -1.58%
O=C(NCC(c1ccco1)S(=O)(=O)c1ccc(Cl)cc1)c1ccccc1F (stereo not drawn)	inactive: -2.94%
COc1ccc(CCNC(=O)c2nnc(Cc3ccc(Cl)cc3)o2)cc1OC	inactive: -26.8%
COc1ccc(-c2nn3c(=O)cc(CN4CCN(C(=O)Nc5ccc(C)c(Cl)c5)CC4)nc3s2)cc1	inactive: -5.7%
CCOC(=O)c1sc(NC(=O)c2cc(CC)on2)c(C(=O)OCC)c1C	inactive: 3.48%

SMILES	activity change, negative = inhibition
Cc1ccc(NS(=O)(=O)c2ccc3[nH]c4c(c3c2)CCCCCC4)cc1Cl	inactive: -18.4%
COCC(=O)N1c2nc(C(C)C)nn2C2(CCCCC2)[C@@H]2CCCC[C@@H]21	inactive: 0.405%
Cc1c(C(=O)NCc2ccccc2)sc2nc3n(c(=O)c12)CCC3	inactive: -4.66%
CCCOC(=O)c1ccc(NC(=O)Cc2csc(C)n2)cc1	inactive: -9.52%
CSc1nc2sc3c(c2c(=O)n1-c1ccccc1C)CCCC3	inactive: -13.6%
CCC(=O)N1CCc2cc(Br)cc(S(=O)(=O)NCc3ccc(Cl)cc3)c21	inactive: -3.1%
Cc1cccc(N2C(=O)CSC23C(=O)N(Cc2cccc(C(F)(F)F)c2)c2ccccc23)c1 (stereo not drawn)	inactive: -6.5%
C=Cc1ccc(CSc2nc(-c3ccccc3Cl)nc3c2Cc2c(CO)cnc(C)c2O3)cc1	inactive: -3.24%
Cc1nc(N2CCCC2)c2c(C(=O)N3CCN(c4cccc(Cl)c4)CC3)c(C)oc2n1	inactive: 2.41%
COc1ccc(N2CCN(C(=O)c3ccc(CS(=O)(=O)c4ccc(Br)cc4)o3)CC2)cc1	inactive: 2.43%
CCN(c1ccccc1)c1nnc(NC(=O)Nc2cccc(Br)c2)s1	inactive: 4.22%
O=C1CC(c2nc3ccccc3n2CCCOc2ccccc2)CN1c1ccc(F)cc1 (stereo not drawn)	inactive: 1.03%
Cc1cc(C)cc(-n2ccn(CC(=O)Nc3ccccc3C(F)(F)F)c(=O)c2=O)c1	inactive: -5.89%
CN(C)CCNC(=O)CCCN1C(=O)c2cccnc2Oc2ccc(Cl)cc21	inactive: 2.13%
Cc1ccc(N2CC(C)Cn3c2nc2c3c(=O)n(CC(=O)O)c(=O)n2C)cc1 (stereo not drawn)	inactive: 1.61%
CCN(c1ccc(OC)cc1)S(=O)(=O)c1nnc(NC(=O)c2ccccc2Cl)s1	inactive: -3.62%
CCOc1ccc(C2c3c(oc4ccc(C)cc4c3=O)C(=O)N2Cc2ccc3c(c2)OCO3)cc1OC (stereo not drawn)	inactive: -26%
Cc1ccc(CNC(=O)c2ccc(CSCc3ccc(C)cc3)o2)cc1	inactive: 0.896%
COc1ccc(NC(=O)c2sc3nc(C)c(C(=O)Nc4ccc(C)cc4C)c(-c4ccc(C)o4)c3c2N)cc1	inactive: -3.33%
Cc1ccc(Nc2nc(C)cc(C)n2)c(C(=O)O)c1	inactive: -3.31%
CCc1ccc(NC(=O)CN2C(=O)C3(SCC(=O)N3c3ccccc3)c3ccccc32)cc1 (stereo not drawn)	inactive: -4.82%
CC1(C)CC(=O)c2cc(-c3nc(-c4ccc(Cl)cc4)cs3)c(=O)n(-c3ccc(Cl)cc3)c2C1	inactive: 0.0376%
Cc1ccc(Cl)cc1NC(=O)CSC1=Nc2ccccc2C2=NC(Cc3ccccc3)C(=O)N12 (stereo not drawn)	inactive: -19.7%
COc1ccc(NC(=O)Cn2nc(-c3ccncc3)ccc2=O)cc1Cl	inactive: 1.16%
